Laboratory results taken from paper PMC12136788.
The list shows a part of the results.

T1: UNK ZnF1-3 (human, UniProt Q9C0B0 31-174)
T1 sequence: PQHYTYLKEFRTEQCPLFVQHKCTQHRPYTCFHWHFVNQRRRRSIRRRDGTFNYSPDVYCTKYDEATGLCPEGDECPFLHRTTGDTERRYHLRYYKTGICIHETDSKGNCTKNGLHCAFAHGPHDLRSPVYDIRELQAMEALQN

B1: chr7:54825262:54825263:-_ENSG00000132432_ENST00000352861|hu_hu|hu_hu_hu_mus_False|38_108 (ssRNA)
RNA: GGGAGUUCUACAGUCCGACGAUCCUGACUUGGCUCAUCCACAAACUGCAUUACCUGAUCCAUGUUUGUUGGAUGGCGGAUUGAGAGCGUAGAGACAACGUAGCACUGAGAGAACCGAGCCCAACGGAACCGGAAGCUGGCAACCAACAGAGGAUUGAGCAUCA
B2: chr8:104075188:104075189:+_ENSG00000155097_ENST00000518738|hu_hu|FALSE|FALSE (ssRNA)
RNA: GGGAGUUCUACAGUCCGACGAUCCUUCCUAAACAAGGUGACAUUACACAGGUAACUGUCUUGGUCCUCUGAAAGAACAUUGCUAGACCUUGGAACUACCAUUUCGGCUAGUGUUUCAUACUGCUUAAUCCAGUCGUUGUGGUUCAACAGAGGAUUGAGCAUCA
B3: chr3:10015032:10015033:+_ENSMUSG00000027533_ENSMUST00000029046|mus_mus|mus_mus_mus_hu_True|48_78 (ssRNA)
RNA: GGGAGUUCUACAGUCCGACGAUCGUUUUUACCAUCACAAGUGAUGAUACAAUCUGGCUUGGCCAUGGCGCCCAUUUUUCGCAAAGCCAGUCCUACUCCUAGCUCCUUCAUGUAUUCAUCAAAGCCUUUGCUGUCCACCAGGCGCAACAGAGGAUUGAGCAUCA
B4: 122070067_122071345_590_CDS_ENSMUSG00000031835_ENSMUST00000081381|mouse|control|control (ssRNA)
RNA: GGGAGUUCUACAGUCCGACGAUCGCUUUUCAGAGCACUUGAAAUAAAUGAGUUUCUAGCUUUGGCUGUGAAGUAUCCGUUGAAAGCCACAAUAUAUUCGUACUCCACCACAGUUGAAGAGAAUUCCACCUUCAAAGUCAGGUGCAACAGAGGAUUGAGCAUCA
B5: 136544985_136548241_3180_CDS_ENSMUSG00000030213_ENSMUST00000032335|mouse|control|control (ssRNA)
RNA: GGGAGUUCUACAGUCCGACGAUCCUGCAACGGUCGAGACAUGGGCUGAGAAGUGCUCACAGUUGAUGAAGAAGGAGGACUUAUCUUCUUGGGGUCUUGUGUAGUUCCGCUCUCUUCAUCGUCCAUCGUGAGAUCAAUGACACCCAACAGAGGAUUGAGCAUCA
B6: chr4:169848332:169848333:+_ENSG00000129116_ENST00000507735|hu_hu|FALSE|FALSE (ssRNA)
RNA: GGGAGUUCUACAGUCCGACGAUCUUGCAUUUUCCUUCAUUCUCCUCCCUACUCCUUCCAAACCCCUGAUUCCUCCAAAUACUAUAUAUGCCUUGGUCAUUUGGGUGGUUUGGAUGCUUUCUGUGGAAUGAACUGUAAUAUAUUCAACAGAGGAUUGAGCAUCA
B7: chr7:7679991:7679992:-_ENSG00000106399_ENST00000396682|hu_hu|hu_hu_hu_mus_False|1_18 (ssRNA)
RNA: GGGAGUUCUACAGUCCGACGAUCUGGGAUGAAUCUUUUCCAGCUUCCCCACGAAGCACACGGGCCGGUCGAUAUACUGUGGUAACAUGCUGGCGUUGACGCGCGCUUUGGGGAGCUCCAUCAUGUCCUCCAUGAUUAUGGUCCCAACAGAGGAUUGAGCAUCA
B8: chr5:37680062:37680063:+_ENSMUSG00000029121_ENSMUST00000031004|mus_hu|mus_mus_mus_hu_False|48_78 (ssRNA)
RNA: GGGAGUUCUACAGUCCGACGAUCUUUGGGUGUAGCUGGUACCUCGUACACAGGACCAUCGUACAUGCCCCUGGAAACCCCUUGCAACCCGAAAACCUUAUUCCUGAUUUUGACGCGCUGGUACAGGUGCUCCGGGAACGCCUUCAACAGAGGAUUGAGCAUCA
B9: 45141516_45141636_2342_3pUTR_ENSMUSG00000022664_ENSMUST00000023344|mouse|control|control (ssRNA)
RNA: GGGAGUUCUACAGUCCGACGAUCAAGGUAAUGAUGUCAAGAUUUUGUAAAUGUACAAACCAAGGAUAGAGCAAACAAACAAACAAACAAACAAUUCUACAAUGGCUUAGGUGAAUUAAAAUACAAGUGCUAAGUAUGAUAACACAACAGAGGAUUGAGCAUCA
B10: chr9:58049150:58049151:-_ENSMUSG00000051243_ENSMUST00000114144|mus_mus|motif|central (ssRNA)
RNA: GGGAGUUCUACAGUCCGACGAUCACUUGCAGUGUGAUGCUGUGGGGCUGCGAGCCGGUCUCCAGACUCAGGUGACAGUCGGAGGGAGCUUCUGGCAUCUGUUGCCCGUCUUCAACCCUGCAGAACCCAGUGCCGGUCCAGACACAACAGAGGAUUGAGCAUCA
B11: chr2:42509997:42509998:+_ENSG00000143924_ENST00000318522|hu_mus|hu_hu_hu_mus_True|38_38 (ssRNA)
RNA: GGGAGUUCUACAGUCCGACGAUCUCGCUGAGUCCUCUCCUCAUAAUUAAACAGGACUACCACUGAGGCGAUAAAAUAAACUAUCUCCCCUGUGGGAAGAAGGUAAACAUUCGCUCUACAGUCCUUUCCUCGAUAACCGUAUACCAACAGAGGAUUGAGCAUCA
B12: chr1:178670160:178670161:-_ENSMUSG00000057335_ENSMUST00000057037|mus_hu|FALSE|FALSE (ssRNA)
RNA: GGGAGUUCUACAGUCCGACGAUCUUGAGGUCUUGGAUCACCAGAUCGACCGUUGUUUCCUUCUGGUGUUUUGGAAUGAACUAAUGGAGGAAUCUUUCGGAAGUUGAGGCUUUCAUCAAAAACACGAUCAACCAACUCUUCUCUCAACAGAGGAUUGAGCAUCA
B13: chr7:135612270:135612271:-_ENSG00000105887_ENST00000393085|hu_mus|hu_hu_hu_mus_False|78_78 (ssRNA)
RNA: GGGAGUUCUACAGUCCGACGAUCGUUUUUUUCUGAGAUGUUAAAUAGUACUUCAGUAACAAAACUUACUUAACCUUUUAUUAAUGCGUGUUGUACCAAAAGCAGACAUUUUAGCUUCAUUUAUUCAAAAAUAUUAACAUUAAGCAACAGAGGAUUGAGCAUCA
B14: 119122356_119122476_1676_3pUTR_ENSG00000182197_ENST00000378204|human|control|control (ssRNA)
RNA: GGGAGUUCUACAGUCCGACGAUCGAAUCCUUGUGCUUUUGCCAGUCUUUGCCAUGCUUGCAGGUGGUGAGGAGCACAACGUCCUCCCCGUUAUGGACGUGAUAUAAGGCAUUCCUGGUGUCUGAUCCUAUCCCUGUCAGGUACCAACAGAGGAUUGAGCAUCA

The binders below were run against T1, UNK ZnF1-3 (assay: nsRBNS (natural sequence RNA bind-n-seq); RBNS binding buffer (assumed for nsRBNS): 25 mM Tris pH 7.5, 150 mM KCl, 3 mM MgCl2, 0.01% Triton X-100, 500 ug/ml BSA, 20 U/ml SUPERase-In, 4 C; UNK is unkempt and MSI1 is Musashi-1; names of the RNAs are library labels; protein concentration not given here; high values mean tight binding).
B1 was tested, and the binding signal was 1.13 enrichment R.
In the case of B2, the binding signal is reported as 0.518 enrichment R.
B3 gave a binding signal of 0.731 enrichment R.
With B4 the binding signal was 0.973 enrichment R.
B5 was tested, and the binding signal was 0.808 enrichment R.
In the case of B6, the binding signal is reported as 0.558 enrichment R.
With B7 the binding signal was 0.802 enrichment R.
In the case of B8, the binding signal is reported as 0.62 enrichment R.
Work on B9 yielded a binding signal of 2.07 enrichment R.
With B10 the binding signal was 0.747 enrichment R.
B11 gave a binding signal of 1.07 enrichment R.
B12 showed a binding signal of 0.782 enrichment R.
In the case of B13, the binding signal is reported as 0.888 enrichment R.
In the case of B14, the binding signal is reported as 0.416 enrichment R.
